This passage reports inhibition results from PubChem BioAssay AID485344 (National Center for Advancing Translational Sciences (NCATS), 2010).

About 6,900 (2%) of roughly 340,000 compounds were called active. Cut-off read from the data, not from the text of the source: active = inhibition above about 30%; inactive = below that, where a call was filed. This is a selection; strong and weak results do not stand in their true shares. Where no call is shown, the source filed none.

The target of the experiment is D(2) dopamine receptor (Homo sapiens) (UniProt P14416). Nature of the experiment: HTS Assay for Allosteric Antagonists of the Human D2 Dopamine Receptor: Primary Screen for Antagonists. Note: 0% is about no effect. As to conditions: HEK293 TREx D2 cells, calcium flux, dopamine EC80; at 10 µM; stronger effect = higher value. The essentials: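 HEK293 T-REx D2 cells, tet-induced, calcium dye no-wash. Cpd pintool add, 180 s kinetic, then EC80 DA, 180 s kinetic. Ca flux read.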
Chain of UniProt P14416 (P14416 whole entry, looked up): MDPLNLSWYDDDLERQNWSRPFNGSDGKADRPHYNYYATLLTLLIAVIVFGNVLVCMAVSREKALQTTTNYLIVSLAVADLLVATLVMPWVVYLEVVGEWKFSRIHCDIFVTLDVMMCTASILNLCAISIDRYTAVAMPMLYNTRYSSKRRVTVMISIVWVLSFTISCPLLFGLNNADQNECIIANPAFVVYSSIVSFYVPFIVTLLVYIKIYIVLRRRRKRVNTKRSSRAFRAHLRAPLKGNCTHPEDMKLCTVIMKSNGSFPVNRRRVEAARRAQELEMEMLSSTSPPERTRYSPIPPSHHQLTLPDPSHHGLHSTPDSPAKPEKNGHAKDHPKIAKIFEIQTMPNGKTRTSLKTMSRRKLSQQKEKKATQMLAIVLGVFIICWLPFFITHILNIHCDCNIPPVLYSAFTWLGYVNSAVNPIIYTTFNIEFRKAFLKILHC
In the case of `O=C1OC(C(=O)Nc2cc(C(F)(F)F)ccc2Cl)Cc2ccccc21` (stereo not drawn), the inhibition is -22.6%. `Cc1ccc(C)c(N2CCN(C(=O)c3cnn(-c4ccccc4Cl)c3C3CCN(C(=O)OC(C)(C)C)CC3)CC2)c1`: the inhibition is -4.08%. With `COc1ccc(Cc2nc3ccc(C(=O)NCc4ccccc4Cl)cc3o2)cc1`, the inhibition was found to be 22.5%.

Take `O=C(Nc1nnc(S(=O)(=O)N2CCc3ccccc32)s1)c1cccc(Cl)c1`: the inhibition is 2.59%. `CCCC(CCC)C(=O)NC1CC(=O)N(c2ccc3c(c2)OCCO3)C1` (stereo not drawn): the inhibition turned out to be 0.0469%. For the compound `Cc1ccc(/C=C(\C#N)c2nc3ccccc3c(=O)[nH]2)cc1`, the inhibition was -3.45%. As to `O=c1nc2ccccc2c2n1CC(CN1CCN(C(c3ccccc3)c3ccccc3)CC1)N2` (stereo not drawn), the inhibition is active: 47.2%. As for `COc1ccc(NC(=O)C2CCCN(c3nnc(C)c4c(C)n(-c5ccccc5)nc34)C2)cc1Cl` (stereo not drawn), the inhibition amounted to 6.11%.

Consider `COCCOC(=O)c1c(-c2ccccc2)c(-c2ccccc2)nn(C)c1=O`, for which the inhibition is -18.5%. As for `CCc1ccccc1NC(=O)Cn1c(=O)n(Cc2ccc(OC)cc2)c(=O)c2oc3ccccc3c21`, the inhibition worked out at 1.92%. For `CCOc1ccc(CC(=O)Nc2c(C(=O)c3ccccc3)oc3ccc(OC)cc23)cc1OCC` the value was 5.25%; for `c1ccc(Cc2noc(CN3CCN(CCOc4ccccc4)CC3)n2)cc1`, active: 55.5%; for `Nc1ccc2[nH]ncc2c1`, active: 34%. For `CN(Cc1ccccc1)C(=O)CSc1nc(-c2ccc(F)cc2)cc(C(F)(F)F)n1`, the inhibition worked out at 3.79%. With `O=c1nc(Nc2cccc(Cl)c2)oc2cc(Cl)oc(=O)c12`, the inhibition was active: 31.6%.

In the case of `O=C(/C=C/c1ccccc1Cl)Nc1nc(-c2cccs2)ns1`, the inhibition is -4.97%. Next, `COc1ccc(NC(=O)N2CCN(S(=O)(=O)c3ccc4c(ccn4C)c3)CC2)c(OC)c1`: -23.8%; `Cc1nc2ccn(Cc3ccco3)c(=O)c2cc1C(=O)N1CCN(c2ccc(F)cc2)CC1`: 1.6%; `O=C(Cn1cc(SCc2c(F)cccc2Cl)c2ccccc21)N1CCCC1`: -7.01%.

For the compound `CC(C)c1ccc(N2C(=O)CSC23C(=O)N(Cc2ccccc2)c2ccccc23)cc1` (stereo not drawn), the inhibition turned out to be 1.86%. `Cc1ccc(NC(=O)Cn2c(=O)n(Cc3nc(C)no3)c(=O)c3cc4c(cc32)OCO4)cc1`: the inhibition is 7.01%.

On to `CCN(Cc1nc(-c2ccc(OC)c(OC)c2)no1)C(=O)c1ccc2c(c1)OCO2`, for which the inhibition is active: 37.4%. Consider `Cc1cc(NS(=O)(=O)c2ccc3oc(=O)c4ncn(C)c4c3c2)ccc1Br`, for which the inhibition is -11.8%. As to `Cc1ccc(C)c(OC(=O)CSc2nnc(-c3ccc4c(c3)OCO4)o2)c1`, the inhibition is -17%. Consider `CCCCc1ccc(NC(=O)c2ccc3c(c2)CCN3S(=O)(=O)c2ccccc2)cc1`, for which the inhibition stood at 1.31%. Turning to `CCOc1cc(C(=O)Nc2ccc(S(=O)(=O)Nc3cc(OC)nc(OC)n3)cc2)cc(OCC)c1OCC`, the inhibition turned out to be 9.61%.

For `COC(=O)c1ccc(Cn2c(SCC(=O)N(C)c3ccccc3)nc3ccccc32)cc1`, the inhibition was determined as 6.55%. As to `CCOc1cc2[nH]c(=O)n(CCCC(=O)N3CCN(c4cccc(Cl)c4)CC3)c(=O)c2cc1OCC`, the inhibition came to 5.18%. As for `COc1ccc(OC)c(NC(=O)N2CCC(CN3CCCCC3)CC2)c1`, the inhibition is 2.8%.

Regarding `COc1ccc(OC)c(CNc2sc3c(c2C(=O)Nc2cc(OC)ccc2OC)CCCC3)c1`, the inhibition was -7.14%. For `CC(C)Cn1cc(C(=O)N2CCN(c3cccc(Cl)c3)CC2)c2c3ccccc3n(C)c2c1=O` the value was -12%; for `CC(=O)N1CCCc2cc(S(=O)(=O)N3CCCC(C(=O)Nc4cccc(Cl)c4C)C3)ccc21` (stereo not drawn), 20.2%; for `CCOC(=O)c1cnc2ccc(OCC)cc2c1Nc1cc(Cl)c(OC)cc1OC`, -6.6%. For the compound `CCC1=C(c2ccc(C)cc2)S(=O)(=O)N=C1N1CCC(C(=O)NCc2ccccc2Cl)CC1`, the inhibition was -6.01%. Take `CCCCCOC(=O)c1ccc(OC(=O)c2sc3ncn(Cc4cccc(F)c4)c(=O)c3c2C)cc1`: the inhibition is -20.5%.

For `CCCN(CCC)CCNC(=O)C1CCCN(S(=O)(=O)c2cccc3nsnc23)C1` (stereo not drawn), the inhibition was 6.6%. Take `CCOC(=O)c1cc(S(=O)(=O)N2CCN(c3ccc(F)cc3)CC2)[nH]n1`: the inhibition was -22.3%. For the compound `Cc1ccc(C)c(N2CCN(CCCNC(=O)c3nnc(Cc4ccc(F)cc4Cl)o3)CC2)c1`, the inhibition came out at 4.95%. As for `CCn1c(=O)cc(OCC(=O)NCCCN2CC(C)CC(C)C2)c2ccccc21` (stereo not drawn), the inhibition is active: 58%. For the compound `COCCn1c(SCC(=O)Nc2ccc(C(F)(F)F)cc2)nc2c([nH]c3ccccc32)c1=O`, the inhibition amounted to 5.66%.

Turning to `O=C(NCc1ccc2c(c1)CCN2C(=O)c1ccccc1)c1ccco1`, the inhibition came to 22.7%. `O=C(Nc1ccc(S(=O)(=O)N(Cc2ccccc2)c2ccccc2)cc1)c1ccc([N+](=O)[O-])cc1`: the inhibition was -13.5%. With `Cc1ccc(NC(=O)C(=O)NCCc2csc3nc(-c4ccccc4C)nn23)cc1Cl`, the inhibition was -3.96%. Next, `COc1ccc(C(C#N)(CCC#N)CCC#N)cc1OC`: active: 79.5%; `O=C(NCc1ccccc1Cl)c1ccc(NC(=O)N2CCSc3ncccc32)cc1`: -1.85%. As to `COc1cccc(N2CCN(C(=O)c3cc4c(=O)n(Cc5ccco5)ccc4nc3C)CC2)c1`, the inhibition is 6.99%. Regarding `COCCCNC(=O)CN1C(=O)CSc2ccc(S(=O)(=O)N3CCOCC3)cc21`, the inhibition was -9.79%.

Turning to `Cc1cccn2c(=O)nc(SCC(=O)N3CCCCCC3)nc12`, the inhibition is active: 31.1%.

With `CCCS(=O)(=O)N1CC(=O)N(c2ccc(Cl)cc2)C(C)(C(=O)NC2CCCC2)C1` (stereo not drawn), the inhibition was -0.291%.

Regarding `CCn1cc2nc(SCc3ccc(F)cc3)n(Cc3ccc(Cl)cc3)c(=O)c2n1`, the inhibition was determined as 16.3%. With `CC(=O)Nc1ccc(Nc2nnc(-c3ccc(C)c(S(N)(=O)=O)c3)c3ccccc23)cc1`, the inhibition turned out to be 14.1%. As to `O=C(C1CCN(S(=O)(=O)Cc2ccccc2)CC1)N1CCN(c2cccc(Cl)c2)CC1`, the inhibition worked out at 13%.

Take `CC(C)CCNC(=O)Nc1cc(C(=O)NCc2cccc(F)c2)ccc1N1CCCC1`: the inhibition was -18.8%. For the compound `COc1ccc2c(c1)c1c(c(=O)n(Cc3ccccc3)c(=O)n1CC(=O)Nc1ccc(C)cc1C)n2C`, the inhibition was determined as 13.4%. For `COc1ccc2c(c1)CC(C(=O)NCCN1CCN(c3cccc(C)c3C)CC1)CO2` (stereo not drawn), the inhibition was found to be 12.3%. For `O=C(Nc1nnc(S(=O)(=O)N2CCCCCC2)s1)c1ccccc1Br` the value was 17.7%; for `CCOc1ccc(NC(=O)/C(C#N)=C/c2ccc(N3CCCC3)c(C)c2)cc1`, active: 38.4%; for `CCOC(=O)c1ccc(CN(Cc2ccc(C)cc2)S(=O)(=O)c2ccc(NC(C)=O)cc2)cc1`, -19.1%.

With `CSc1cccc(NC(=O)C2CCN(S(=O)(=O)c3ccc4[nH]c5c(c4c3)CCCCC5)CC2)c1`, the inhibition turned out to be 6.18%. As to `N#Cc1ccc(Sc2ccccn2)c([N+](=O)[O-])c1`, the inhibition was active: 37.7%. Next, `CCOc1cccc(NC(=O)c2ccc(F)c(S(=O)(=O)N(CC)c3cccc(C)c3)c2)c1`: 23.8%; `Cc1c(Cl)cccc1NC(=O)CSc1nc(=O)n(Cc2cccnc2)c2c1CCC2`: 17%. For the compound `CC1CC(C)CN(CCCNC(=O)C2CCCN(c3ncnc4c3nc3n4CCCCC3)C2)C1` (stereo not drawn), the inhibition is active: 33.7%. On to `Cc1c(Cl)cccc1-n1ncc(C(=O)Nc2ccc(F)cc2F)c1C1CCN(C(=O)OC(C)(C)C)CC1`, for which the inhibition is -1.1%.

For `O=C1CC(c2nc(-c3ccccc3)no2)CN1c1ccc2c(c1)OCCO2` (stereo not drawn), the inhibition amounted to 5.54%. For `Cc1cc(Cl)ccc1NS(=O)(=O)c1ccc2c(c1)CC(C)N2C(=O)C1CCC1` (stereo not drawn) the value was -7.98%. For `Cc1ccc(-c2c3c(=O)n(C)c(=O)n(C)c3cn2-c2cc(C)ccc2O)cc1`, the inhibition turned out to be 0.035%. For `COc1cccc(NC(=O)Cn2c(=O)n(CC(=O)NCCc3ccccc3)c(=O)c3sccc32)c1`, the inhibition was -4.19%. On to `COCCN1Cc2cccc(C(=O)Nc3ccc(Cl)cc3Cl)c2C1=O`, for which the inhibition amounted to 1.2%. In the case of `CCN(CC)c1ccc(NC(=O)CN2C(=O)c3cccnc3Sc3ccccc32)c(C)c1`, the inhibition was -1.5%. For `CC(=O)N1CCc2c(sc3c2c(=O)n(CCc2ccccc2)c(=O)n3Cc2cccc(C)c2)C1` the value was 1.49%. Next, `COc1ccc2oc(-c3ccc(C)c(NC(=O)CSc4ccc(Cl)cc4)c3)nc2c1`: -7.27%. Next, `CC(=O)N1c2ccc(S(=O)(=O)N3CCN(c4cccc(Cl)c4)CC3)cc2CC1C` (stereo not drawn): -2.56%.

On to `CCOc1cc(C2C(C(=O)OC)=C(C)NC3=C2C(=O)c2ccccc23)c(Br)cc1O` (stereo not drawn), for which the inhibition was -9.51%.

For `O=C(Cn1c(=O)c2cccn2c2ccc(F)cc21)N1CCN(c2ccccc2)CC1`, the inhibition is 11.4%. For `CCc1ccc(NC(=O)Cn2c(=O)n(CC3CCCO3)c(=O)c3cc(OC)c(OC)cc32)cc1` (stereo not drawn) the value was 10.8%.

Consider `COc1cccc(-n2c(=O)c3c(C)c(C(=O)N(C)C)sc3n(CC(=O)NCC3CCCO3)c2=O)c1` (stereo not drawn), for which the inhibition was active: 41.1%. Next, `Cc1ccc(-c2cc(C(F)(F)F)c(C#N)c(SCC(=O)O)n2)cc1`: 6.17%. In the case of `Cc1ccccc1CNC(=O)C(=O)NCC(c1cccs1)S(=O)(=O)c1ccc(Cl)cc1` (stereo not drawn), the inhibition is -17.4%. Regarding `Cc1cccc(N2CCN(Cc3nnc(-c4ccc5c(c4)OCO5)o3)CC2)c1C`, the inhibition is -16%. For `N#Cc1cccc(Oc2ccc(S(=O)(=O)N3CCCC3)cn2)c1`, the inhibition was active: 35.2%. Take `CCc1nn2c(=O)cc(COc3ccc(/C=C(\C#N)C(=O)Nc4ccc(C)cc4)cc3)nc2s1`: the inhibition is 7.46%. Regarding `Cc1ccc(CSc2ncc(Cl)c(C(=O)Nc3sc4c(c3C(N)=O)CCCC4)n2)cc1`, the inhibition turned out to be 7.31%. Turning to `CCCCNC(=O)CSc1cc(=O)n(C)c2ccccc12`, the inhibition was active: 35.4%. For the compound `O=C(Cn1cnc2nc3c(cc2c1=O)CCCC3)N1CCN(c2ccccc2)CC1`, the inhibition was 9.93%. Turning to `Cc1cc(C)cc(NC(=O)Cn2c3ncccc3c(=O)n2-c2ccc(C)c(C)c2)c1`, the inhibition was -0.833%. For `O=C(NCc1ccccc1)c1ccc2c(c1)nc1n2CCCCC1` the value was -3.03%. For `CC(C)CCn1c(O)c(N=NC(=O)c2ccco2)c2ccccc21` the value was active: 31.3%; for `O=C(NCC(c1ccccc1)c1ccccc1)c1nn(-c2ccccc2F)nc1CO`, 9.91%. For the compound `Oc1c(CN2CCN(c3ccccn3)CC2)cc(Cl)c2cccnc12`, the inhibition is active: 89.2%. As to `Cc1ccc(CCNC(=O)CCSCc2ccccc2Cl)cc1`, the inhibition was found to be 5.72%. Take `CCCn1c2ccccc2c2cnn(CC(=O)NC(CCSC)C(=O)OC)c(=O)c21` (stereo not drawn): the inhibition amounted to 8.7%.

Regarding `Cc1c(C(=O)NCCN(C)C)sc2nc3n(c(=O)c12)CCC3`, the inhibition is -17.6%.

For orientation: inhibition means the drop in the measured response relative to a control, in per cent.
